In patent publication US20040063695A1, “Cystic fibrosis transmembrane conductance regulator protein inhibitors and uses thereof” (priority 2002, published 2004):

Target: ATP-sensitive K+ channels (K-ATP channel) (Rattus norvegicus, UniProt Q09429)

## 3-[(3-trifluoromethyl)phenyl]-5-[(4-carboxyphenyl)methylene]-2-thioxo-4-thiazolidinone [CFTRinh-172]
5 μM
  effect on membrane potential: small hyperpolarization
2 and 5 μM
  effect on membrane potential: did not depolarize membrane potential

Like-named read-outs stand apart in the source and are kept apart here.
